Scores with a large standard error are left out. Two further conditions of the source, in which the scores hardly spread, are not listed. In variant names, del marks residues removed and ins residues inserted between the two positions. For part of these data: How much ogerin was present is not stated here.
B1: GPR68, Q15743 (parent)
chain: MGNITADNSSMSCTIDHTIHQTLAPVVYVTVLVVGFPANCLSLYFGYLQIKARNELGVYLCNLTVADLFYICSLPFWLQYVLQHDNWSHGDLSCQVCGILLYENIYISVGFLCCISVDRYLAVAHPFRFHQFRTLKAAVGVSVVIWAKELLTSIYFLMHEEVIEDENQHRVCFEHYPIQAWQRAINYYRFLVGFLFPICLLLASYQGILRAVRRSHGTQKSRKDQIQRLVLSTVVIFLACFLPYHVLLLVRSVWEASCDFAKGVFNAYHFSLLLTSFNCVADPVLYCFVSETTHRDLARLRGACLAFLTCSRTGRAREAYPLGAPEASGKSGAQGEEPELLTKLHPAFQTPNSPGSGGFPTGRLA

Experiments:
[1] = variants of: B1; assay: cAMP reporter score (Enrich2 score, wild type = 0); higher = more signal; HEK293T, FACS bins
[2] = variants of: B1; assay: surface expression score (Enrich2 score, wild type = 0); higher = more signal; HEK293T, FACS bins

Variant	cAMP reporter score ([1]; pH 5.5)	cAMP reporter score ([1]; pH 6)	cAMP reporter score ([1]; pH 6, modulator: ogerin)	cAMP reporter score ([1]; pH 6.5, modulator: ogerin)	surface expression score [2]
V96L	1.25	1.45	0.117	0.22	0.524
V96M	-0.823	-0.793	-1.12	-1.19	-0.812
V96N	-0.681	-0.185	–	-0.867	-1.53
V96P	-1.92	-0.841	–	–	-0.605
V96Q	-1.5	-0.681	-0.367	-0.893	-2.02
V96R	-1.19	-0.366	-1.28	-1.27	-1.57
V96S	-2.04	-1.07	-1.39	-1.07	-1.68
V96T	-1.74	-0.332	-2.66	-2.39	-1.89
V96W	-0.513	-0.947	-1.28	-0.967	-0.02
V96Y	-0.586	-0.279	–	-0.608	-0.282
V96_C97del	-1.54	-0.569	-1.18	-1.22	-1.95
V96_C97insGSG	-1.55	-0.656	-1.19	-0.865	-1.48
I99A	-1.43	-0.983	-0.935	-0.973	-1.47
I99D	-1.34	-0.728	-0.516	-1.7	-2.53
I99E	-0.937	-1.18	–	–	-1.23
I99G	-0.447	–	-0.641	–	–
I99H	-0.179	0.111	-1.61	-1.04	-0.806

Variant	cAMP reporter score ([1]; pH 5.5)	cAMP reporter score ([1]; pH 6)	cAMP reporter score ([1]; pH 6, modulator: ogerin)	cAMP reporter score ([1]; pH 6.5, modulator: ogerin)	surface expression score [2]
I99K	-1.05	-0.223	-1.09	–	-1.43
I99L	0.46	1.98	-0.301	-1.17	0.68
I99M	-0.468	-1.41	-1.18	-0.516	-0.073
I99N	-1.59	-1.36	-2.37	-0.867	-1.47
I99P	-1.74	-1.42	-3.67	-0.437	–
I99Q	-1.46	-1.13	-1.34	–	-0.108
I99R	-2.09	-1.09	-1.8	-0.908	-1.82
I99T	-0.709	-0.413	-1.08	-1	-0.239
I99V	0.912	-0.223	0.96	-0.052	-0.065
I99W	0.173	–	-0.674	-1.22	–
I99Y	1.55	–	-0.912	-1.09	0.363
I99_L100del	-1.79	-1.31	-1.6	-1.12	-2.15
I99_L100insGS	-0.409	-1.47	–	-0.427	–
L100_L101insG	-1.07	-0.42	-1.68	-1.28	-3.35
L101_Y102del	-0.989	-1.46	-1.34	-0.587	-2.86
L101_Y102insG	-1.32	-0.72	-1.77	–	-1.47
